For one test, the system named is HSkMC. The test is described as follows: cytotoxicity call (relative viability < 0.9). Particulars: 10 µM.
A further test deals with HepG2. In words: cytotoxicity call (relative viability < 0.9). Particulars: 10 µM.
The subject of a further test is S. aureus RN4220. In words: growth inhibition call (relative growth <= 0.2). Particulars: 50 µM.

The list shows a part of the results.

With `CC(C)Cn1cnc2ccccc21`, the cytotoxicity call with HSkMC and in the test with HepG2 was “inactive” in each case. For the same compound, the growth inhibition call in the test with S. aureus RN4220 is “inactive”.

As to `C[C@@H]1CN([C@H](C)CO)C(=O)c2cc(NC(=O)Nc3ccc4c(c3)OCO4)ccc2O[C@@H](C)CCCCO[C@@H]1CN(C)Cc1ccncc1`, the cytotoxicity call in the test on HSkMC and in the test with HepG2 was “inactive” in each case. Also, in the test with S. aureus RN4220, the growth inhibition call is “inactive”.

With `C[C@H](CO)N1C[C@H](C)[C@H](CN(C)C(=O)Cc2cccnc2)Oc2cc(C#CC3(O)CCCC3)ccc2S1(=O)=O`, the cytotoxicity call with HSkMC and in the test on HepG2 was “inactive” each time. Moreover, the growth inhibition call in the test on S. aureus RN4220 was “inactive”.

Consider `C[C@@H]1CN([C@H](C)CO)C(=O)c2c(c3ccccc3n2C)-c2ccccc2CO[C@@H]1CN(C)Cc1ccc2c(c1)OCCN2C`, for which, in the test on HSkMC, the cytotoxicity call is “inactive”. Besides, in the test with HepG2, the cytotoxicity call was “active”. In the test with S. aureus RN4220, the growth inhibition call is “inactive”.

As to `CC(C)(C)c1cc(NC(=O)Nc2ccc(-c3cn4c(n3)sc3cc(OCCN5CCOCC5)ccc34)cc2)no1`, the cytotoxicity call in the test with HSkMC and in the test with HepG2 was “active” each time. Besides, the growth inhibition call in the test on S. aureus RN4220 is “inactive”.

Turning to `C[C@@H]1CCCCO[C@H](CN(C)C(=O)Nc2ccccc2)[C@@H](C)CN([C@H](C)CO)C(=O)c2cc(NS(=O)(=O)c3ccccc3)ccc2O1`, the cytotoxicity call in the test on HSkMC and with HepG2 was “inactive” throughout. Moreover, in the test with S. aureus RN4220, the growth inhibition call is “inactive”.

For `CCC[C@H]1CN(S(=O)(=O)c2c(C)cc(C)c3nonc23)C[C@@H]1N`, the cytotoxicity call with HSkMC and in the test on HepG2 was “inactive” in each case. The growth inhibition call in the test on S. aureus RN4220 was “inactive”.

Consider `COc1ccc(CN(C)C[C@H]2OCCCC[C@H](C)Oc3ccc(NS(=O)(=O)c4ccc(C)cc4)cc3C(=O)N([C@H](C)CO)C[C@@H]2C)cc1`, for which the cytotoxicity call with HSkMC and in the test with HepG2 was “inactive” in each case. Besides, the growth inhibition call in the test with S. aureus RN4220 is “inactive”.

For the compound `O=C(C[C@@H]1CC[C@@H]2[C@H](COC[C@@H](O)CN2S(=O)(=O)c2ccc(Cl)cc2)O1)N[C@H]1CCN(Cc2ccccc2)C1`, the cytotoxicity call in the test on HSkMC and in the test with HepG2 was “inactive” in each case. In addition, the growth inhibition call with S. aureus RN4220 is “inactive”.

As for `COc1ccc(NC(=O)N(C)C[C@H]2Oc3ccc(NC(=O)CCN4CCOCC4)cc3C(=O)N([C@H](C)CO)C[C@@H]2C)cc1`, the cytotoxicity call with HSkMC and in the test on HepG2 was “inactive” each time. In addition, in the test with S. aureus RN4220, the growth inhibition call was “inactive”.

Turning to `C[C@@H]1CN([C@H](C)CO)C(=O)Cc2cc(NS(=O)(=O)c3cn(C)cn3)ccc2O[C@@H]1CN(C)S(C)(=O)=O`, the cytotoxicity call in the test on HSkMC and in the test on HepG2 was “inactive” in each case. In addition, the growth inhibition call in the test on S. aureus RN4220 was “inactive”.

`C[C@@H]1CN([C@@H](C)CO)C(=O)Cc2cc(NC(=O)CCCCCC(=O)Nc3ccccc3N)ccc2O[C@H]1CN(C)C(=O)Nc1ccccc1`: the cytotoxicity call in the test on HSkMC and in the test on HepG2 was “inactive” each time. Besides, in the test on S. aureus RN4220, the growth inhibition call is “inactive”.

Turning to `C[C@H](NC(=O)N(C)C[C@@H]1OCc2ccccc2-c2c(n(C)c3ccccc23)C(=O)N([C@H](C)CO)C[C@@H]1C)c1ccccc1`, the cytotoxicity call with HSkMC and in the test with HepG2 was “inactive” each time. The growth inhibition call in the test on S. aureus RN4220 was “inactive”.

Take `C[C@@H]1CCCCO[C@H](CN(C)S(=O)(=O)c2cccs2)[C@@H](C)CN([C@@H](C)CO)C(=O)c2cc(NC(=O)Nc3ccc(C(F)(F)F)cc3)ccc2O1`: the cytotoxicity call in the test with HSkMC and in the test on HepG2 was “active” throughout. In the test with S. aureus RN4220, the growth inhibition call is “inactive”.

For the compound `C=CC[C@@H](CC(=O)NCCO)C(=O)N[C@@H](COC(=O)[C@H](CC=C)CC(=O)OC(C)(C)C)Cc1ccccc1`, the cytotoxicity call with HSkMC and in the test on HepG2 was “inactive” throughout. Besides, the growth inhibition call with S. aureus RN4220 was “inactive”.

For `C[C@@H]1CN([C@@H](C)CO)C(=O)c2cc(NC(=O)c3ccncc3)ccc2O[C@@H](C)CCCCO[C@@H]1CN(C)Cc1ccccc1`, the cytotoxicity call in the test on HSkMC and in the test on HepG2 was “inactive” each time. In the test with S. aureus RN4220, the growth inhibition call is “inactive”.

On to `C[C@@H]1CN([C@H](C)CO)C(=O)Cc2cc(NS(=O)(=O)c3ccccc3)ccc2O[C@H]1CN(C)S(C)(=O)=O`, for which the cytotoxicity call in the test on HSkMC and in the test with HepG2 was “inactive” in each case. The growth inhibition call in the test with S. aureus RN4220 is “inactive”.

For `CCN(CC)c1ccc(N2CC=C[C@@]34O[C@@H]5C=CCOC(=O)[C@@H]5[C@H]3C(=O)N([C@@H](CO)C(C)C)[C@@H]4C2=O)cc1`, the cytotoxicity call with HSkMC and with HepG2 was “inactive” throughout. Also, in the test on S. aureus RN4220, the growth inhibition call is “inactive”.

For `S=c1[nH]cnc2nc[nH]c12`, in the test with HSkMC, the cytotoxicity call was “inactive”. Moreover, the cytotoxicity call in the test with HepG2 was “active”. In the test on S. aureus RN4220, the growth inhibition call is “inactive”.

Consider `C[C@@H]1CN([C@H](C)CO)C(=O)c2cc(C#CCC3CCCC3)cnc2O[C@H]1CN(C)C(=O)c1cnccn1`, for which the cytotoxicity call with HSkMC and in the test on HepG2 was “inactive” in each case. For the same compound, the growth inhibition call with S. aureus RN4220 was “inactive”.

As for `O=C(NO)c1cn(-c2ccc(C[C@H]3C(=O)O[C@@H](Cc4ccccc4)[C@H]4C=C(/C=C/C5CC5)CN43)cc2)nn1`, the cytotoxicity call with HSkMC and in the test on HepG2 was “inactive” in each case. Also, in the test with S. aureus RN4220, the growth inhibition call was “inactive”.

Consider `C[C@H](CO)N1C[C@H](C)[C@@H](CN(C)S(=O)(=O)c2cccs2)Oc2ccc(NC(=O)Cc3ccccc3)cc2C1=O`, for which the cytotoxicity call in the test with HSkMC and in the test on HepG2 was “inactive” throughout. Moreover, in the test with S. aureus RN4220, the growth inhibition call is “inactive”.

Take `CCN1CCN([C@H]2CC(=O)NC2=O)CC1`: the cytotoxicity call in the test with HSkMC and with HepG2 was “inactive” in each case. In addition, the growth inhibition call in the test on S. aureus RN4220 was “inactive”.

Take `CC(C)NC(=O)Nc1ccc2c(c1)C(=O)N([C@H](C)CO)C[C@H](C)[C@@H](CN(C)Cc1ccccc1)OCCCC[C@@H](C)O2`: the cytotoxicity call with HSkMC and with HepG2 was “inactive” in each case. Further, in the test on S. aureus RN4220, the growth inhibition call was “inactive”.

With `C[C@H](CO)N1C[C@H](C)[C@H](CN(C)Cc2ccc(Cl)c(Cl)c2)Oc2ccc(NC(=O)Nc3cccc4ccccc34)cc2CC1=O`, the cytotoxicity call in the test on HSkMC and in the test with HepG2 was “inactive” each time. Moreover, the growth inhibition call in the test on S. aureus RN4220 was “inactive”.

`C[C@H](CO)N1C[C@H](C)[C@@H](CN(C)Cc2ccncc2)Oc2ccc(NC(=O)Nc3cccc4ccccc34)cc2CC1=O`: in the test with HSkMC, the cytotoxicity call is “inactive”. Further, in the test on HepG2, the cytotoxicity call was “active”. Further, the growth inhibition call with S. aureus RN4220 is “inactive”.

Take `CCCNC(=O)[C@@H]1c2ccccc2C(=O)N(Cc2cc(F)cc(C(F)(F)F)c2)[C@H]1c1ccc(CO)cc1`: the cytotoxicity call in the test on HSkMC (human skeletal muscle cells) and in the test with HepG2 was “inactive” throughout. Also, the growth inhibition call in the test with S. aureus RN4220 was “inactive”.

Regarding `COc1ccc(S(=O)(=O)N[C@H]2C=C[C@@H](CC(=O)NCCc3ccncc3)O[C@H]2CO)cc1`, the cytotoxicity call in the test with HSkMC and with HepG2 was “inactive” each time. Also, the growth inhibition call in the test on S. aureus RN4220 is “inactive”.
